Data as given in PubChem BioAssay (NCATS).
The inconclusive results got no clear call from the source; some entries with a clear call stand among them for comparison. For some of these results: Potencies of inconclusive entries are doubtful fits and often do not repeat. Active and inactive are the calls of the source. Unless noted, calls come from the whole dose curve; as a rule, active = well fitted curve in the direction sought with a large enough effect; inconclusive = small, poorly fitted or top-dose-only effect, or another doubt; inactive = no such curve, though single readings can be large; an effect the other way counts as inactive or inconclusive.

Assays:
[1] = target: Ubiquitin carboxyl-terminal hydrolase 1 (Homo sapiens) (UniProt O94782); assay: Inhibitors of USP1/UAF1: Pilot qHTS (AID 504865);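 note: rhodamine fluorescence freed from ubiquitin-rhodamine substrate followed over time; top concentration of the series differs between compounds; % is set by controls: 0 for no effect and ±100 for the full control effect; nearly all actives have a fitted effect of over 35% in size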
UniProt O94782, sequence (O94782 whole entry, looked up): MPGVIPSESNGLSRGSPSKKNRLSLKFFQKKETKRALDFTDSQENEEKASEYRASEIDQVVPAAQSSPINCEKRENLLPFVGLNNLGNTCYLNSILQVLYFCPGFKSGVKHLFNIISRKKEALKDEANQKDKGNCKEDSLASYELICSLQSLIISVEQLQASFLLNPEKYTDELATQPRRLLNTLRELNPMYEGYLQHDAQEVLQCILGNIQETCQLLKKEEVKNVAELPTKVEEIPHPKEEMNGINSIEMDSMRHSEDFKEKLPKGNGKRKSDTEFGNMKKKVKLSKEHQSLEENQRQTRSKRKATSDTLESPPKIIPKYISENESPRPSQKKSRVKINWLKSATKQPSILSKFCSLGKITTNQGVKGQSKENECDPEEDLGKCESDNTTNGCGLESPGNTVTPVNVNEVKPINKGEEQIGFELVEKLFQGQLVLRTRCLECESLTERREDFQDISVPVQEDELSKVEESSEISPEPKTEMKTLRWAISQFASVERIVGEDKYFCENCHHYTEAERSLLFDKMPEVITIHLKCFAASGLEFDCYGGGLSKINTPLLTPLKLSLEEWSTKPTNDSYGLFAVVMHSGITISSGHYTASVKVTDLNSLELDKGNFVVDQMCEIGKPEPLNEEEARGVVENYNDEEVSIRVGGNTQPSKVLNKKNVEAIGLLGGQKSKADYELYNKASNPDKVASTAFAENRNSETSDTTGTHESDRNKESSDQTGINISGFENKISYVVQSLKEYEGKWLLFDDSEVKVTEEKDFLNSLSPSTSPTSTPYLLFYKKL
Outline: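 Enzyme-free wells gave the negative control, while test wells held 1nM USP1/UAF1 preincubated with compound for 15 min at room temperature. Ub-Rho at 150nM final started the reaction, and fluorescence at 480/540 nm was recorded kinetically.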

[2] = S16 Schwann cell PMP22 intronic element beta-lactamase assay (AID 624044; calls by dose curve; note: potency is the fitted concentration of half-maximal effect; nearly all actives have a fitted effect of over 15% in size); settings: S16 rat Schwann cells, PMP22 element beta-lactamase FRET, 24 h; ratio activity, negative = inhibition: at 38.3 µM (top of the series) unless noted
Outline: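 Beta-lactamase reporter under a PMP22 intronic regulatory element in stable S16 rat Schwann cells; 24 h compound exposure. 460 nm blue signal normalized between DMSO (0%) and potassium clavulanate, with 535 nm FRET tracking viability; curves classed by r2 and response.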

[3] = qHTS of pediatric cancer cell lines to identify multiple opportunities for drug repurposing: Primary screen for A673 cells (AID 1347092); settings: A673 Ewing sarcoma viability, CellTiter-Glo ATP luminescence, 48 h; activity change, negative = cytotoxic: at 46 µM (top of the series); note: potency is the fitted concentration of half-maximal effect; nearly all actives have a fitted effect of over 45% in size
Outline: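 Titration-based qHTS on A673 cells: MIPE compounds spanned 11 points (0.78 nM to 46 µM final), NPC compounds 8 points (0.59 nM to 46 µM final). Viability after 48 h was measured by ATP luminescence.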

[4] = qHTS of pediatric cancer cell lines to identify multiple opportunities for drug repurposing: Primary screen for RD cells (AID 1347104);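 note: plate controls were DMSO for no effect and bortezomib for full effect; nearly all actives have a fitted effect of over 55% in size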
Outline: (§1)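 500-1,000 cells/well; 5 h pre-incubation 37 °C/5% CO2; compound pinned; 48 h; CellTiter-Glo, 15 min RT; luminescence. MIPE 11-pt from 0.78 nM, NPC 8-pt from 0.59 nM final. Bortezomib 2.3 µM final as positive control.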

[5] = qHTS of pediatric cancer cell lines to identify multiple opportunities for drug repurposing: Primary screen for MG 63 (6-TG R) cells (AID 1347105); settings: MG 63 (6-TG R) viability, CellTiter-Glo, 48 h; activity change, negative = cytotoxic: at 46 µM (top of the series); note: % is set by controls: 0 for no effect and ±100 for the full control effect; nearly all actives have a fitted effect of over 50% in size
Outline: as §1

[6] = qHTS of pediatric cancer cell lines to identify multiple opportunities for drug repurposing: Primary screen for Rh41 cells (AID 1347108);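 note: luminescence drop marks cytotoxic hits; nearly all actives have a fitted effect of over 70% in size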
Outline: as §1

[7] = Primary qHTS for small molecule stabilizers of the endoplasmic reticulum resident proteome: Secreted ER Calcium Modulated Protein (SERCaMP) assay (AID 1508630); settings: SH-SY5Y GLuc-SERCaMP (Gaussia luciferase released on ER calcium loss) secretion, thapsigargin, luminescence; activity change, negative = inhibition: at 38.4 µM (top of the series) unless noted; note: % is set by controls: 0 for no effect and ±100 for the full control effect
Outline: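 The SH-SY5Y reporter protocol was run at 3 concentrations up to 38.3 uM (primary) or 11 concentrations (follow-up): 16 h compound, 100 nM thapsigargin for 4 h, then extracellular luciferase luminescence.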

[8] = A High-Content qHTS Against Drug Library for the Identification of Small Molecules that Inhibit DYT1 Early Onset Primary Dystonia-Associated Cell Pathology (AID 1645839; calls by dose curve; note: potency is the fitted concentration of half-maximal effect)
Outline: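 Induced EGFP-delE TorsinA cells are imaged after 48 h of compound treatment. Punctate fusion-protein distribution gives the %pathology value, while nuclei counts flag toxicity. Wild-type EGFP-hTOR1A cells define the normal pattern.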

[9] = target: Cytochrome P450 2C9 (Homo sapiens) (UniProt P11712); assay: Cytochrome P450 family 2 subfamily C member 9 (CYP2C9) small molecule antagonists: luciferase biochemical (cell-free) qHTS assay (AID 1645842; active = well fitted curve in the direction sought with a large enough effect in the repeat runs; inconclusive = weak or mixed curves; inactive = no such curve, though single readings can be large; an effect the other way counts as inactive or inconclusive; note: % is set by controls: 0 for no effect and ±100 for the full control effect; nearly all actives have a fitted effect of over 55% in size)
UniProt P11712, sequence (P11712 whole entry, looked up): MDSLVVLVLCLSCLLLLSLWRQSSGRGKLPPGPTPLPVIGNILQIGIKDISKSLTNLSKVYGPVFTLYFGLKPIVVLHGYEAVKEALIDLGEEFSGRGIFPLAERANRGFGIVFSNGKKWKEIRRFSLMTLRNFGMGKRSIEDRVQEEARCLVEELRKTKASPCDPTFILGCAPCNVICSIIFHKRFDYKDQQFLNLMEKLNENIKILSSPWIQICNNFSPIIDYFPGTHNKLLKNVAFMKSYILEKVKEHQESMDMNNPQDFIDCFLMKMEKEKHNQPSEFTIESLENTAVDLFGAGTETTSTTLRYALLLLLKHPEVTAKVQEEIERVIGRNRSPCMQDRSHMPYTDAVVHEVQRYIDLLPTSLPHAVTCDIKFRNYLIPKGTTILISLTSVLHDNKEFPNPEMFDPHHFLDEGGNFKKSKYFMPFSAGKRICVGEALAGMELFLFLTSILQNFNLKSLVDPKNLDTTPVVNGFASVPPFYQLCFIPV
Outline: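 P450-Glo CYP2C9 system: proluciferin substrate with enzyme in mix containing 0.4% BSA, 10 min at room temperature, then NADPH regeneration solution added and incubated 1 h at 37C. Detection reagent stopped reaction; luminescence read after 20 min as RLU.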

OV90 = assay: Primary qHTS to identify gynecologic anti-cancer compounds using libraries of approved drugs and bioactive compounds (AID 1345084); settings: Gynecologic cancer cell panel viability, ATPlite luminescence, 48 h; series mostly up to 57.5 µM; note: nearly all actives have a fitted effect of over 55% in size; note: potency is the fitted concentration of half-maximal effect; for activity change, negative = cytotoxicity: % is set by controls: 0 for no effect and ±100 for the full control effect
Outline: (§2)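 Five-point cytotoxicity, 48 h drug exposure at 37 C, 5% CO2, on cells seeded 16 h beforehand. ATP content read by ATPlite luminescence.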

SKOV3 = assay: as above; settings: Gynecologic cancer cell panel viability, ATPlite luminescence, 48 h; series mostly up to 57.5 µM
Outline: as §2

Tov-21-G = assay: as above; settings: Gynecologic cancer cell panel viability, ATPlite luminescence, 48 h; series mostly up to 57.5 µM
Outline: as §2

7G8 = assay: qHTS profiling for inhibitors of Plasmodium falciparum proliferation (AID 504749); note: nearly all actives have a fitted effect of over 60% in size; note: potency is the fitted concentration of half-maximal effect;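 for activity, negative = inhibition: 0% = DMSO vehicle and full inhibition = artemisinin control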; settings: P. falciparum in erythrocytes, SYBR Green DNA, 72 h; series mostly up to 28.7 µM
Outline: (§3)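 Quantitative HTS: compounds pinned into medium, infected erythrocytes added (0.3% parasitemia, 2.5% hematocrit), 72 h culture at 37 C under 5% CO2. Saponin/Triton lysis with SYBR Green I, overnight RT, then fluorescence read.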

ATS189 = assay: as above; settings: P. falciparum in erythrocytes, SYBR Green DNA, 72 h; series mostly up to 28.7 µM
Outline: as §3

CP203 = assay: as above; settings: P. falciparum in erythrocytes, SYBR Green DNA, 72 h; series mostly up to 28.7 µM
Outline: as §3

CP215 = assay: as above; settings: P. falciparum in erythrocytes, SYBR Green DNA, 72 h; series mostly up to 28.7 µM
Outline: as §3

CP286 = assay: as above; settings: P. falciparum in erythrocytes, SYBR Green DNA, 72 h; series mostly up to 28.7 µM
Outline: as §3

DIV17 = assay: as above; settings: P. falciparum in erythrocytes, SYBR Green DNA, 72 h; activity, negative = inhibition: at 28.7 µM (top of the series)
Outline: as §3

DIV30 = assay: as above; settings: P. falciparum in erythrocytes, SYBR Green DNA, 72 h; series mostly up to 28.7 µM
Outline: as §3

GB4 = assay: as above; settings: P. falciparum in erythrocytes, SYBR Green DNA, 72 h; series mostly up to 28.7 µM
Outline: as §3

W2 = assay: as above; settings: P. falciparum in erythrocytes, SYBR Green DNA, 72 h; activity, negative = inhibition: at 28.7 µM (top of the series)
Outline: as §3

[10] = test system: Zika virus NS2B-NS3 protease (linked construct); assay: Primary screen NINDS Rhodamine qHTS for Zika virus inhibitors (AID 1347160); note: % is set by controls: 0 for no effect and ±100 for the full control effect; nearly all actives have a fitted effect of over 55% in size
Outline: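 Enzyme (25 nM, linked NS2B-NS3) was preincubated 15 min with compound in 10 mM Tris-HCl pH 8.0, 0.01% Tween 20. Rhodamine110 substrate (1.5 microM) was then added and fluorescence read at start and after 15 min.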

[11] = Primary fluorescence-based thiol-reactive (MSTI) qHTS assay for identification of artifact compounds. (AID 1845221);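 note: thiol-reactive compounds lower the probe fluorescence signal; nearly all actives have a fitted effect of over 65% in size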
Outline: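 Thiol-reactive compounds detected by quenching of 4 uM MSTI fluorescence (525/598 nm) after 1 h room-temperature dark incubation in PBS pH 7.4, 2% DMSO. qHTS titration; percent inhibition Hill-fitted against Acetyl-MSTI/MSTI controls.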

[12] = test system: Zika virus NS2B-NS3 protease (unlinked complex); assay: Primary screen GU Rhodamine qHTS for Zika virus inhibitors: Unlinked NS2B-NS3 protease assay (AID 1347159); settings: Recombinant ZIKV NS2B-NS3 protease, Rhodamine110 substrate fluorescence; activity change, negative = inhibition: at 107 µM (top of the series); note: potency is the fitted concentration of half-maximal effect; nearly all actives have a fitted effect of over 60% in size
Outline: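 Enzyme 25 nM in Tris-HCl pH 8.0 + 0.01% Tween 20; compounds up to 114 microM, 15 min RT dark; + Rhod110 substrate 1.5 microM; read t0 and 15 min; delta fluorescence → % inhibition → 4-parameter Hill fit.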

[13] = Primary qHTS for inhibitors of nuclear receptor binding SET domain protein 2 (NSD2) in an isogenic RCH-ACV NSD2 p.E1099K mutant (9B) (AID 1645876); settings: activity change, negative = viability loss: at 44.9 µM (top of the series) unless noted; note: potency is the fitted concentration of half-maximal effect; nearly all actives have a fitted effect of over 70% in size
[14] = Primary qHTS for inhibitors of nuclear receptor binding SET domain protein 2 (NSD2) in an RCH-ACV wild type WT cells (2C) (AID 1645877); settings: activity change, negative = cell killing: at 44.9 µM (top of the series) unless noted; note: potency is the fitted concentration of half-maximal effect; nearly all actives have a fitted effect of over 70% in size
[15] = target: Luciferin 4-monooxygenase (Photinus pyralis) (UniProt P08659); assay: Primary firefly luciferase (FLuc) qHTS assay for identification of artifact compounds. (AID 1845220); note: potency is the fitted concentration of half-maximal effect; nearly all actives have a fitted effect of over 60% in size
Outline: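 In this counter-screen for luciferase artifacts, test compounds met substrate (10 uM each luciferin and ATP) before 10 nM enzyme started the reaction. Light output was measured 5 min later.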

[16] = Primary redox qHTS assay for identification of artifact compounds. (AID 1845223); note: potency is the fitted concentration of half-maximal effect
Outline: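 Redox-cycling detection via DTT (250 uM final) oxidation coupled to Amplex Red (25 uM)/HRP (250 mU/mL) in HBSS. 15 min preincubation plus 30 min after DTT, room temperature. Ex/Em 525/598 nm; 4-parameter Hill fit against DMSO and 10 uM DA3003.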
Tags give direction and shape of the fitted curve.

O=C(O)c1cc(=O)c2ccccc2o1
inconclusive: Potency [2] 25.1 µM [rising, single point] | Potency [3] 33.5 µM [cytotoxic, single point] | Potency [8] 35.5 µM [inhibitor, single point] | Potency (DIV17) 0.601 µM [inhibitor, full curve, poor fit] | Potency (GB4) 19 µM [inhibitor, partial curve, poor fit] | Potency (W2) 0.0004 µM [activator]
inactive: Potency [1] | Potency [4] | Potency [5] | Potency [6] | Potency [7] | Potency [9] | Potency (OV90) | Potency (SKOV3) | Potency (Tov-21-G) | Potency (7G8) | Potency (ATS189) | Potency (CP203) | Potency (CP215) | Potency (CP286) | Potency (DIV30)

CC1(C(=O)O)CCCC2(C)C3CCC4CC3(CCC12)CC4=O (stereo not given)
inactive: Potency [10] | Potency [11] | Potency (OV90) | Potency (Tov-21-G)

Cc1c(-c2ccc3c(c2)OCO3)oc2ccc(C(O)C(C)O)cc12 (stereo not given)
active: Potency [15] 1.17 µM
inconclusive: Potency [12] 35.5 µM [inhibitor, partial curve, poor fit] | Potency [13] 20.1 µM [inhibitor, single point] | Potency [14] 17.9 µM [inhibitor, single point] | Potency (OV90) 10 µM [cytotoxic, partial curve] | Potency (SKOV3) 22.4 µM [cytotoxic, single point] | Potency (Tov-21-G) 12.6 µM [cytotoxic, single point]

CCNC(=O)[C@@H]1CCCN1C(=O)[C@H](CCCN=C(N)N)NC(=O)[C@H](CC(C)C)NC(=O)[C@@H](CC(C)C)NC(=O)[C@H](Cc1ccc(O)cc1)NC(=O)[C@H](CO)NC(=O)[C@H](Cc1c[nH]c2ccccc12)NC(=O)[C@H](Cc1cnc[nH]1)NC(=O)[C@@H]1CCC(=O)N1
inconclusive: Potency [16] 2.92 µM [activator, full curve]
inactive: Potency (OV90) | Potency (SKOV3)

C[C@@H]1O[C@@H](O[C@H]2[C@H](OC(=O)[C@]34CCC(C)(C)C[C@H]3C3=CCC5[C@@]6(C)C[C@H](O)[C@H](O[C@@H]7O[C@H](CO)[C@@H](O[C@@H]8O[C@H](CO)[C@@H](O)[C@H](O)[C@H]8O)[C@H](O)[C@H]7O)[C@@](C)(CO)C6[C@H](O)C[C@@]5(C)[C@]3(C)C[C@H]4O)OC[C@H](O)[C@@H]2O)[C@H](O)[C@H](O)[C@H]1O[C@@H]1OC[C@@H](O)[C@H](O[C@@H]2OC[C@](O)(CO)[C@H]2O)[C@H]1O (stereo not given in full)
inconclusive: Potency [12] 14.1 µM [inhibitor, single point] | Potency [16] 2.83 µM [activator, partial curve, poor fit] | Potency (SKOV3) 0.891 µM [rising, single point]
inactive: activity change, negative = thiol reactive [11] -12.6% [at 11.5 µM] | activity change, negative = cytotoxicity (OV90) 4.05% [at 6.55 µM]
